Source: the supplement of paper PMC4996465

Tests used:
KB3-1 = assay: viability (% of DMSO control); higher = more viable cells
Description: (§1)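 Eleven-dose screen of the NCATS MIPE 3 library on cells without co-treatment; CellTiter-Glo after 48 h, as % of DMSO wells.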

Nalm-6 [1] = assay: as above
Description: as §1

Nalm-6 [2] = assay: log AC50 of viability decrease (48 h) (log10 M); higher = less potent
Description: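 Eleven-dose screen of the NCATS MIPE 3 library on cells without co-treatment; CellTiter-Glo after 48 h. AC50 from the curve fit; only inhibitory curves of the better fit classes are listed.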

Row | SMILES | viability (KB3-1; 0.00078 µM) [%] | viability (KB3-1; 0.00234 µM) [%] | viability (KB3-1; 0.00702 µM) [%] | viability (KB3-1; 0.0211 µM) [%] | viability (KB3-1; 0.0632 µM) [%] | viability (KB3-1; 0.19 µM) [%] | viability (KB3-1; 0.569 µM) [%] | viability (KB3-1; 1.71 µM) [%] | viability (KB3-1; 5.12 µM) [%] | viability (KB3-1; 15.4 µM) [%] | viability (KB3-1; 46.1 µM) [%] | viability (Nalm-6 [1]; run: 1, 0.00078 µM) [%] | viability (Nalm-6 [1]; run: 1, 0.00234 µM) [%] | viability (Nalm-6 [1]; run: 1, 0.00702 µM) [%] | viability (Nalm-6 [1]; run: 1, 0.0211 µM) [%] | viability (Nalm-6 [1]; run: 1, 0.0632 µM) [%] | viability (Nalm-6 [1]; run: 1, 0.19 µM) [%] | viability (Nalm-6 [1]; run: 1, 0.569 µM) [%] | viability (Nalm-6 [1]; run: 1, 1.71 µM) [%] | viability (Nalm-6 [1]; run: 1, 5.12 µM) [%] | viability (Nalm-6 [1]; run: 1, 15.4 µM) [%] | viability (Nalm-6 [1]; run: 1, 46.1 µM) [%] | viability (Nalm-6 [1]; run: 2, 0.00078 µM) [%] | viability (Nalm-6 [1]; run: 2, 0.00234 µM) [%] | viability (Nalm-6 [1]; run: 2, 0.00702 µM) [%] | viability (Nalm-6 [1]; run: 2, 0.0211 µM) [%] | viability (Nalm-6 [1]; run: 2, 0.0632 µM) [%] | viability (Nalm-6 [1]; run: 2, 0.19 µM) [%] | viability (Nalm-6 [1]; run: 2, 0.569 µM) [%] | viability (Nalm-6 [1]; run: 2, 1.71 µM) [%] | viability (Nalm-6 [1]; run: 2, 5.12 µM) [%] | viability (Nalm-6 [1]; run: 2, 15.4 µM) [%] | viability (Nalm-6 [1]; run: 2, 46.1 µM) [%] | log AC50 of viability decrease (Nalm-6 [2]; run: 1) | log AC50 of viability decrease (Nalm-6 [2]; run: 2)
1 | CC1(C)CNc2cc(NC(=O)c3cccnc3NCc3ccncc3)ccc21 [Motesanib] | 104 | 105 | 100 | 103 | 110 | 106 | 104 | 108 | 106 | 99.9 | 70 | 108 | 98.9 | 103 | 112 | 107 | 109 | 105 | 113 | 107 | 93.1 | 47.1 | 102 | 94.7 | 96.4 | 95.2 | 105 | 101 | 100 | 97.2 | 101 | 90.3 | 45.4 | -4.68 | 
2 | CC1(C)CCC(=C(CN2CCN(CC2)C3=CC=C(C=C3)C(=O)NS(=O)(=O)C4=CC(=C(N[C@H](CCN5CCOCC5)CSC6=CC=CC=C6)C=C4)S(=O)(=O)C(F)(F)F)\C1)/C7=CC=C(Cl)C=C7 [Navitoclax] | 97.3 | 100 | 96.8 | 97.2 | 101 | 103 | 101 | 96.7 | 95 | 89 | 7.55 | 116 | 104 | 101 | 119 | 96.4 | 81.1 | 42.6 | 10.4 | 8.92 | 6.61 | 1.76 | 101 | 105 | 102 | 93.1 | 89.6 | 70.6 | 32.2 | 6.01 | 3.4 | 2.09 | 0.723 | -6.43 | -6.48
3 | NC(=O)c1c(OCc2c(F)cc(Br)cc2F)nsc1NC(=O)NCCCCN1CCCC1 [OSI-632] | 105 | 101 | 107 | 103 | 107 | 104 | 107 | 109 | 116 | 111 | 13.3 | 118 | 123 | 117 | 131 | 123 | 127 | 121 | 112 | 98.8 | 88.9 | 0.752 | 104 | 114 | 111 | 112 | 106 | 113 | 103 | 103 | 94.8 | 91.3 | 0.374 | -4.68 | -4.63
4 | FC1=C(C=C(C/C2=N/NC(=O)C3=C2C=CC=C3)C=C1)C(=O)N4CCN(CC4)C(=O)C5CC5 [Olaparib] | 108 | 105 | 112 | 110 | 109 | 110 | 109 | 111 | 102 | 104 | 81.4 | 107 | 109 | 116 | 111 | 115 | 112 | 110 | 107 | 102 | 95.9 | 35.8 | 97.8 | 101 | 105 | 105 | 103 | 96.7 | 99.1 | 93.2 | 90.8 | 56.4 | 28.8 | -4.63 | -4.83
5 | CN1CCN(c2cc(C(=O)Nc3ccc4c(c3)-c3c(c(C(N)=O)nn3-c3ccc(F)cc3)CC4)c(Cl)cn2)CC1 [PHA-408] | 101 | 101 | 99.9 | 100 | 95.4 | 101 | 101 | 95.7 | 96.4 | 90.5 | 3.29 | 109 | 127 | 119 | 118 | 112 | 124 | 118 | 106 | 110 | 109 | 0.792 | 112 | 110 | 111 | 110 | 114 | 113 | 110 | 109 | 105 | 100 | 0.17 |  | -4.58
6 | CCCCN1CCC(CNC(=O)c2c3n(c4ccccc24)CCCO3)CC1 [Piboserod hydrochloride] | 96.6 | 106 | 99.9 | 97.6 | 99.2 | 94 | 90.2 | 96.8 | 105 | 97.4 | 103 | 98.4 | 110 | 103 | 101 | 80.6 | 62.9 | 38.4 | 5.67 | 1.93 | -0.107 | -0.57 | 95.4 | 107 | 110 | 111 | 103 | 100 | 102 | 109 | 105 | 103 | 86.8 | -6.53 | 
7 | CC(C)(C)COc1ccc(-n2cc(C(=O)O)cn2)cc1C#N [Piraxostat] | 109 | 109 | 107 | 106 | 110 | 112 | 109 | 109 | 108 | 105 | 101 | 124 | 124 | 123 | 124 | 130 | 121 | 119 | 122 | 120 | 110 | 100 | 112 | 102 | 111 | 109 | 107 | 108 | 101 | 104 | 91.9 | 62 | 6.52 |  | -4.73

Where a name gives a salt, the structure may show the parent alone. Viability of KB3-1 and Nalm-6 cells after 48 h of drug alone (CellTiter-Glo), 11 doses over about 4.5 log units. % of DMSO wells, lower = more cell loss; AC50 from the fitted curve, lower = more potent. No active / inactive call. Nalm-6 was screened in two runs. AC50 is listed only for well-fitted inhibitory curves. KB3-1 is a HeLa-derived carcinoma line, Nalm-6 a B-cell precursor leukaemia line.
